Where “and” joins values, the source holds several entries; their conditions need not be identical. Equal values may be shown once.
Conditions: Escherichia coli (strain K12); pH 7.5; 20 °C; Thermal; CD; Na2HPO4 25 mM; reversible: yes; whole UniProt chain shown

B1: ATP synthase subunit a wild type, P0AB98 (protein)
chain: MASENMTPQDYIGHHLNNLQLDLRTFSLVDPQNPPATFWTINIDSMFFSVVLGLLFLVLFRSVAKKATSGVPGKFQTAIELVIGFVNGSVKDMYHGKSKLIAPLALTIFVWVFLMNLMDLLPIDLLPYIAEHVLGLPALRVVPSADVNVTLSMALGVFILILFYSIKMKGIGGFTKELTLQPFNHWAFIPVNLILEGVSLLSKPVSLGLRLFGNMYAGELIFILIAGLLPWWSQWILNVPWAIFHILIITLQAFIFMVLTIVYLSMASEEH
In the case of B1, the unfolding free energy is reported as 1.7 kcal/mol and 1.8 kcal/mol and 1 kcal/mol.
